Reference: the supplement of paper PMC6206098
± gives the uncertainty stated by the source. Shown are siRNA guide strands that differ only in the seed, positions 2 to 7.

How the values were obtained:
3LL = assay: cell viability relative to siNT1 control; higher = less toxic; conditions: concentration: 10 nM; 96 h; Mus musculus;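 note: Luminescence-based viability of cells reverse transfected in 384-well plates with lipid-complexed siRNAs built on a non-toxic 19mer backbone whose passenger strand carries 2′-O-methyl groups at positions 1 and 2, triplicates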
Protocol: (§1)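 Arrayed screen of 4096 siRNA duplexes, each carrying one of all possible 6mer seeds at guide-strand positions 2-7 in a fixed neutral 19mer scaffold (constant flanks: U at position 1, then ACAUGUAAACCA, plus a 3' AA overhang). The passenger strand is 2'-O-methylated at positions 1-2 so only the guide strand loads into RISC. Duplexes were reverse-transfected at 10 nM with RNAiMAX in triplicate in 384-well plates; viability was read by CellTiter-Glo ATP content 96 h after transfection. Values are % viability normalised to lipid-only wells (HeyA8, H460, M565) or to siNT1 (3LL).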

H460 = assay: cell viability relative to lipid-only control; HeyA8 human ovarian and H460 human lung cancer; M565 mouse liver and 3LL mouse lung cancer; siNT1 is a non-toxic control siRNA; higher = less toxic; conditions: concentration: 10 nM; 96 h; Homo sapiens
Protocol: as §1

HeyA8 = assay: as above; conditions: concentration: 10 nM; 96 h; Homo sapiens
Protocol: as §1

M565 = assay: as above; conditions: concentration: 10 nM; 96 h; Mus musculus
Protocol: as §1
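Throughout, for cell viability relative to lipid-only control: reverse lipid transfection in 384-well plates, in triplicate, of duplexes on a non-toxic 19mer backbone with passenger strand 2′-O-methylated at positions 1 and 2, luminescence viability read-out.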

| Sequence | cell viability (3LL) | cell viability (H460) | cell viability (HeyA8) | cell viability (M565) |
| --- | --- | --- | --- | --- |
| UAGGUCUACAUGUAAACCAAA | 44.8 ± 5.1% | 21.7 ± 6.6% | 12.5 ± 0.75% | 14.6 ± 2.7% |
| UAGGUGAACAUGUAAACCAAA | 73.8 ± 3.7% | 67.3 ± 13% | 69.8 ± 3.3% | 39.3 ± 5.9% |
| UAGGUGCACAUGUAAACCAAA | 29.2 ± 4.1% | 21.7 ± 6% | 6.83 ± 0.3% | 6.26 ± 2.1% |
| UAGGUGGACAUGUAAACCAAA | 4.56 ± 1.2% | 40.2 ± 14% | 14 ± 0.94% | 9.01 ± 2.6% |
| UAGGUGUACAUGUAAACCAAA | 50.7 ± 13% | 59.5 ± 6.1% | 54.1 ± 4.8% | 9.32 ± 1.9% |
| UAGGUUAACAUGUAAACCAAA | 80.6 ± 11% | 70.9 ± 13% | 79.9 ± 2.6% | 53 ± 3.8% |
| UAGGUUCACAUGUAAACCAAA | 21.1 ± 3.4% | 71 ± 24% | 12.3 ± 1.8% | 32.4 ± 6.4% |
| UAGGUUGACAUGUAAACCAAA | 92.6 ± 1.1% | 82.3 ± 16% | 81.3 ± 4.9% | 55 ± 7% |
| UAGGUUUACAUGUAAACCAAA | 87 ± 10% | 78.8 ± 15% | 86.4 ± 5.8% | 68.9 ± 7.1% |
| UAGUAAAACAUGUAAACCAAA | 90.8 ± 7.7% | 71.9 ± 8.2% | 86.6 ± 6.6% | 75.4 ± 10% |
| UAGUAACACAUGUAAACCAAA | 63.3 ± 7.5% | 51.3 ± 6.4% | 10.4 ± 1.1% | 48.2 ± 3.1% |
| UAGUAAGACAUGUAAACCAAA | 92.1 ± 7% | 67 ± 6.9% | 57 ± 15% | 102 ± 2.1% |
| UAGUAAUACAUGUAAACCAAA | 55.1 ± 6.4% | 45.7 ± 4.6% | 29.7 ± 2.1% | 52.7 ± 0.99% |
| UAGUACAACAUGUAAACCAAA | 53.1 ± 7.1% | 45.3 ± 7.5% | 54.6 ± 1% | 107 ± 4.1% |
| UAGUACCACAUGUAAACCAAA | 18.9 ± 2.7% | 21.9 ± 3.5% | 57.8 ± 3.9% | 47.4 ± 9.9% |
| UAGUACGACAUGUAAACCAAA | 80.8 ± 14% | 60.4 ± 9.1% | 75.2 ± 4.7% | 101 ± 5.7% |
| UAGUACUACAUGUAAACCAAA | 15.3 ± 0.38% | 35.9 ± 5.3% | 23.1 ± 1.8% | 72.4 ± 9% |
| UAGUAGAACAUGUAAACCAAA | 81.3 ± 9.9% | 68.5 ± 14% | 76.1 ± 5.1% | 82.5 ± 9% |
| UAGUAGCACAUGUAAACCAAA | 6.21 ± 1.7% | 7.07 ± 0.86% | 10.9 ± 0.34% | 20.1 ± 3.5% |
| UAGUAGGACAUGUAAACCAAA | 46.4 ± 9.2% | 39.6 ± 3.3% | 23.7 ± 3.9% | 52.6 ± 4.9% |
| UAGUAGUACAUGUAAACCAAA | 28.6 ± 5% | 15.8 ± 6% | 10.8 ± 1.4% | 84.9 ± 7.9% |
| UAGUAUAACAUGUAAACCAAA | 91.5 ± 5.4% | 74.7 ± 12% | 84.2 ± 3.6% | 71.2 ± 1.7% |
